# The list shows a part of the results.
# B1: Nictaba (Nicotiana tabacum), Q94EW1 (protein)
# chain: MQGQWIAARDLSITWVDNPQYWTWKTVDPNIEVAELRRVAWLDIYGKIETKNLIRKTSYAVYLVFKLTDNPRELERATASLRFVNEVAEGAGIEGTTVFISKKKKLPGELGRFPHLRSDGWLEIKLGEFFNNLGEDGEVEMRLMEINDKTWKSGIIVKGFDIRPN
# Assays:
# Test in all cases: glycan array binding signal (z-score within array); higher = stronger binding
# Details in all cases: glycan notation: IUPAC condensed, linker removed
# [1] = biological target: Gal(b1-3)[Fuc(a1-4)]GlcNAc(b1-3)Gal(b1-4)GlcNAc
# How it was run: (§1)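 The binding signal is a Z-score computed within each array. Data were drawn from 3228 arrays in the Consortium for Functional Glycomics database, restricted to those with a known protein sequence. Scores were averaged over arrays of the same protein sequence at different concentrations or buffers, and over linkers, and negative values can be taken as non-binding.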
# [2] = biological target: Gal(b1-3)[Fuc(a1-4)]GlcNAc(b1-3)Gal(b1-4)[Fuc(a1-3)]GlcNAc
# How it was run: as §1
# [3] = biological target: Gal(b1-3)[Fuc(a1-4)]GlcNAc(b1-6)GalNAc
# How it was run: as §1
# [4] = biological target: Gal(b1-3)[GlcNAc(b1-6)]GalNAc
# How it was run: as §1
# [5] = biological target: Gal(b1-3)[GlcNAc(b1-6)]GlcNAc
# How it was run: as §1
# [6] = biological target: Gal(b1-3)[Neu5Ac(a2-6)]GalNAc
# How it was run: as §1
# [7] = biological target: Gal(b1-3)[Neu5Ac(a2-6)]GlcNAc
# How it was run: as §1
# [8] = biological target: Gal(b1-3)[Neu5Ac(a2-6)]GlcNAc(a1-4)Gal(b1-4)Glc
# How it was run: as §1
# [9] = biological target: Gal(b1-3)[Neu5Ac(a2-6)]GlcNAc(b1-4)Gal(b1-4)Glc
# How it was run: as §1
# [10] = biological target: Gal(b1-3)[Neu5Ac(a2-6)]GlcNAc(b1-6)Gal(b1-4)Glc
# How it was run: as §1
# [11] = biological target: Gal(b1-3)[Neu5Ac(b2-6)]GalNAc
# How it was run: as §1
# [12] = biological target: Gal(b1-3)[Neu5Ac(b2-6)]GlcNAc
# How it was run: as §1
# Gal(b1-4)Gal = biological target: Gal(b1-4)Gal
# How it was run: as §1
# [13] = biological target: Gal(b1-4)GalNAc(a1-3)[Fuc(a1-2)]Gal(b1-4)GlcNAc
# How it was run: as §1
# [14] = biological target: Gal(b1-4)GalNAc(b1-3)[Fuc(a1-2)]Gal(b1-4)GlcNAc
# How it was run: as §1
# Gal(b1-4)Glc = biological target: Gal(b1-4)Glc
# How it was run: as §1
# Gal(b1-4)Glc6S = biological target: Gal(b1-4)Glc6S
# How it was run: as §1
# Gal(b1-4)GlcNAc = biological target: Gal(b1-4)GlcNAc
# How it was run: as §1
# [15] = biological target: Gal(b1-4)GlcNAc(a1-6)Gal(b1-4)GlcNAc
# How it was run: as §1
# Gal(b1-4)GlcNAc(b1-2)Man = biological target: Gal(b1-4)GlcNAc(b1-2)Man
# How it was run: as §1
# [16] = biological target: Gal(b1-4)GlcNAc(b1-2)Man(a1-3)Man(b1-4)GlcNAc(b1-4)GlcNAc
# How it was run: as §1
# [17] = biological target: Gal(b1-4)GlcNAc(b1-2)Man(a1-3)[Gal(b1-4)GlcNAc(b1-2)Man(a1-6)]Man(b1-4)GlcNAc(b1-4)GlcNAc
# How it was run: as §1
# [18] = biological target: Gal(b1-4)GlcNAc(b1-2)Man(a1-3)[Gal(b1-4)GlcNAc(b1-2)Man(a1-6)]Man(b1-4)GlcNAc(b1-4)[Fuc(a1-6)]GlcNAc
# How it was run: as §1
# [19] = biological target: Gal(b1-4)GlcNAc(b1-2)Man(a1-3)[Gal(b1-4)GlcNAc(b1-2)Man(a1-6)][Gal(b1-4)GlcNAc(b1-4)]Man(b1-4)GlcNAc(b1-4)[Fuc(a1-6)]GlcNAc
# How it was run: as §1
# [20] = biological target: Gal(b1-4)GlcNAc(b1-2)Man(a1-3)[Gal(b1-4)GlcNAc(b1-2)Man(a1-6)][GlcNAc(b1-4)]Man(b1-4)GlcNAc(b1-4)[Fuc(a1-6)]GlcNAc
# How it was run: as §1
# [21] = biological target: Gal(b1-4)GlcNAc(b1-2)Man(a1-3)[Gal(b1-4)GlcNAc(b1-2)][GlcNAc(b1-4)]Man(b1-4)GlcNAc(b1-4)GlcNAc
# How it was run: as §1
# [22] = biological target: Gal(b1-4)GlcNAc(b1-2)Man(a1-3)[GlcNAc(b1-2)Man(a1-6)]Man(b1-4)GlcNAc(b1-4)GlcNAc
# How it was run: as §1
# [23] = biological target: Gal(b1-4)GlcNAc(b1-2)Man(a1-3)[GlcNAc(b1-4)][Gal(b1-4)GlcNAc(b1-2)Man(a1-6)]Man(b1-4)GlcNAc(b1-4)GlcNAc
# How it was run: as §1
# [24] = biological target: Gal(b1-4)GlcNAc(b1-2)Man(a1-3)[Man(a1-6)]Man(b1-4)GlcNAc(b1-4)GlcNAc
# How it was run: as §1
# [25] = biological target: Gal(b1-4)GlcNAc(b1-2)Man(a1-6)Man(b1-4)GlcNAc(b1-4)GlcNAc
# How it was run: as §1
# [26] = biological target: Gal(b1-4)GlcNAc(b1-2)Man(a1-6)[GlcNAc(b1-2)Man(a1-3)]Man(b1-4)GlcNAc(b1-4)GlcNAc
# How it was run: as §1
# [27] = biological target: Gal(b1-4)GlcNAc(b1-2)Man(a1-6)[Man(a1-3)]Man(b1-4)GlcNAc(b1-4)GlcNAc
# How it was run: as §1
# [28] = biological target: Gal(b1-4)GlcNAc(b1-2)[Gal(b1-4)GlcNAc(b1-4)]Man(a1-3)[Gal(b1-4)GlcNAc(b1-2)Man(a1-6)]Man(b1-4)GlcNAc(b1-4)GlcNAc
# How it was run: as §1
# [29] = biological target: Gal(b1-4)GlcNAc(b1-2)[Gal(b1-4)GlcNAc(b1-4)]Man(a1-3)[Gal(b1-4)GlcNAc(b1-2)[Gal(b1-4)GlcNAc(b1-6)]Man(a1-6)]Man(b1-4)GlcNAc(b1-4)GlcNAc
# How it was run: as §1
# [30] = biological target: Gal(b1-4)GlcNAc(b1-2)[Gal(b1-4)GlcNAc(b1-4)]Man(a1-3)[GlcNAc(b1-4)][Gal(b1-4)GlcNAc(b1-2)Man(a1-6)]Man(b1-4)GlcNAc(b1-4)GlcNAc
# How it was run: as §1
# [31] = biological target: Gal(b1-4)GlcNAc(b1-2)[Gal(b1-4)GlcNAc(b1-4)]Man(a1-3)[GlcNAc(b1-4)][Gal(b1-4)GlcNAc(b1-2)[Gal(b1-4)GlcNAc(b1-6)]Man(a1-6)]Man(b1-4)GlcNAc(b1-4)GlcNAc
# How it was run: as §1
# [32] = biological target: Gal(b1-4)GlcNAc(b1-2)[Gal(b1-4)GlcNAc(b1-6)]Man(a1-6)[Gal(b1-4)GlcNAc(b1-2)Man(a1-3)]Man(b1-4)GlcNAc(b1-4)GlcNAc
# How it was run: as §1
# [33] = biological target: Gal(b1-4)GlcNAc(b1-2)[Gal(b1-4)GlcNAc(b1-6)]Man(a1-6)[Gal(b1-4)GlcNAc(b1-2)Man(a1-3)]Man(b1-4)GlcNAc(b1-4)[Fuc(a1-6)]GlcNAc
# How it was run: as §1
# [34] = biological target: Gal(b1-4)GlcNAc(b1-2)[Gal(b1-4)GlcNAc(b1-6)]Man(a1-6)[GlcNAc(b1-4)][Gal(b1-4)GlcNAc(b1-2)Man(a1-3)]Man(b1-4)GlcNAc(b1-4)GlcNAc
# How it was run: as §1
# [35] = biological target: Gal(b1-4)GlcNAc(b1-2)[Gal(b1-4)GlcNAc(b1-6)]Man(a1-6)[GlcNAc(b1-4)][Gal(b1-4)GlcNAc(b1-2)[Gal(b1-4)GlcNAc(b1-4)]Man(a1-3)]Man(b1-4)GlcNAc(b1-4)[Fuc(a1-6)]GlcNAc
# How it was run: as §1
# [36] = biological target: Gal(b1-4)GlcNAc(b1-3)Gal(b1-3)GalNAc
# How it was run: as §1
# [37] = biological target: Gal(b1-4)GlcNAc(b1-3)Gal(b1-3)GlcNAc
# How it was run: as §1
# [38] = biological target: Gal(b1-4)GlcNAc(b1-3)Gal(b1-4)Glc
# How it was run: as §1
# [39] = biological target: Gal(b1-4)GlcNAc(b1-3)Gal(b1-4)GlcNAc
# How it was run: as §1
# [40] = biological target: Gal(b1-4)GlcNAc(b1-3)Gal(b1-4)GlcNAc(b1-2)Man(a1-3)[Gal(b1-4)GlcNAc(b1-3)Gal(b1-4)GlcNAc(b1-2)Man(a1-6)]Man(b1-4)GlcNAc(b1-4)GlcNAc
# How it was run: as §1
binder,measurement,setting,value
B1,glycan array binding signal (z-score),[1],-0.284
same,glycan array binding signal (z-score),[2],-0.273
same,glycan array binding signal (z-score),[3],-0.385
same,glycan array binding signal (z-score),[4],-0.309
same,glycan array binding signal (z-score),[5],-0.312
same,glycan array binding signal (z-score),[6],-0.272
same,glycan array binding signal (z-score),[7],-0.332
same,glycan array binding signal (z-score),[8],-0.335
same,glycan array binding signal (z-score),[9],-0.385
same,glycan array binding signal (z-score),[10],-0.195
same,glycan array binding signal (z-score),[11],-0.271
same,glycan array binding signal (z-score),[12],-0.39
same,glycan array binding signal (z-score),Gal(b1-4)Gal,-0.311
same,glycan array binding signal (z-score),[13],-0.283
same,glycan array binding signal (z-score),[14],-0.286
same,glycan array binding signal (z-score),Gal(b1-4)Glc,-0.297
same,glycan array binding signal (z-score),Gal(b1-4)Glc6S,-0.278
same,glycan array binding signal (z-score),Gal(b1-4)GlcNAc,-0.259
same,glycan array binding signal (z-score),[15],-0.282
same,glycan array binding signal (z-score),Gal(b1-4)GlcNAc(b1-2)Man,-0.283
same,glycan array binding signal (z-score),[16],2.85
same,glycan array binding signal (z-score),[17],3.74
same,glycan array binding signal (z-score),[18],1.64
same,glycan array binding signal (z-score),[19],0.29
same,glycan array binding signal (z-score),[20],0.532
same,glycan array binding signal (z-score),[21],-0.036
same,glycan array binding signal (z-score),[22],2.42
same,glycan array binding signal (z-score),[23],-0.103
same,glycan array binding signal (z-score),[24],3.52
same,glycan array binding signal (z-score),[25],0.684
same,glycan array binding signal (z-score),[26],1.89
same,glycan array binding signal (z-score),[27],0.889
same,glycan array binding signal (z-score),[28],0.071
same,glycan array binding signal (z-score),[29],0.157
same,glycan array binding signal (z-score),[30],0.068
same,glycan array binding signal (z-score),[31],-0.308
same,glycan array binding signal (z-score),[32],2.32
same,glycan array binding signal (z-score),[33],2.96
same,glycan array binding signal (z-score),[34],-0.292
same,glycan array binding signal (z-score),[35],-0.384
same,glycan array binding signal (z-score),[36],-0.391
same,glycan array binding signal (z-score),[37],-0.291
same,glycan array binding signal (z-score),[38],-0.269
same,glycan array binding signal (z-score),[39],-0.267
same,glycan array binding signal (z-score),[40],1.21

# From the supplement of paper PMC8728848
